Measurements: PubChem BioAssay AID1030 (National Center for Advancing Translational Sciences (NCATS), 2008)
The campaign covered roughly 220,000 compounds. About 16,000 (7.3%) were called active. Inconclusive means that the source gave no clear call. Such entries were picked first, then a sample of the others. The call rests on the fitted dose curve; in most records, active means well fitted inhibition curve with a large enough effect (not every such curve was filed as active); inconclusive means small, poorly fitted or top-dose-only effect, or another doubt; inactive means no such curve, though single readings can be large or run the other way. No potency is given beside an inconclusive call; the fits are too rough.

biological target: Aldehyde dehydrogenase 1A1 (Homo sapiens) (UniProt P00352); experiment: qHTS Assay for Inhibitors of Aldehyde Dehydrogenase 1 (ALDH1A1); conditions: Purified ALDH1A1, NADH fluorescence, propionaldehyde substrate; series mostly up to 75.3 µM; activity, negative = inhibition: at the top concentration;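 on activity, negative = inhibition: plate controls were no enzyme wells and a reference inhibitor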
Potency means the concentration at half of the fitted maximal effect; tags describe the fitted curve by direction and shape.

Chain of UniProt P00352 (P00352 whole entry, looked up): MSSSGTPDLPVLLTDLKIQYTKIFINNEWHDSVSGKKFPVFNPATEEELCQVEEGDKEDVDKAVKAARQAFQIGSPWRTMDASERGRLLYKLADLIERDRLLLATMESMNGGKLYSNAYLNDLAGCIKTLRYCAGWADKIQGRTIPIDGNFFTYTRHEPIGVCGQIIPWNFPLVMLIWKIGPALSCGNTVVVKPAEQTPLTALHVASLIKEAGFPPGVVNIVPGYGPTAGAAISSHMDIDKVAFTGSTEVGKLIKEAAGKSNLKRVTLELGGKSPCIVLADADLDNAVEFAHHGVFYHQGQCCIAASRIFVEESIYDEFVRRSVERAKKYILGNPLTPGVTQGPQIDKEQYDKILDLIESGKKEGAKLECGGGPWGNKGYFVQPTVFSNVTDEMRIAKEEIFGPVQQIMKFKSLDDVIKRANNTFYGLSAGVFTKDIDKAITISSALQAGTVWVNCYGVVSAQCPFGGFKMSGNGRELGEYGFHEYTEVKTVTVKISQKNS

SMILES	Potency	activity, negative = inhibition
CCN(CC)S(=O)(=O)c1csc(C(=O)OCC(=O)c2ccccc2)c1	inconclusive [inhibitor, partial curve]	–
COCCOC(=O)c1[nH]c2c(c1C)C(=O)CC(c1ccco1)C2 (stereo unspecified)	inconclusive [inhibitor, single point]	–
O=C(CSc1nnc(-c2ccc(C(F)(F)F)cn2)o1)Nc1ccccc1Cl	–	inactive: 4.86%
COc1ccc(CSCC(=O)Nc2ccc(S(=O)(=O)N3CCCCCC3)cc2)cc1	inconclusive [inhibitor, single point]	–
COc1ccc(/C=N/N=C2\SC(CC(=O)O)C(=O)N2c2ccccc2)cc1 (stereo unspecified)	active: 20 µM	–
O=C1Cc2ccccc2C(=O)N1Cc1ccccc1	inconclusive [inhibitor, single point]	–
O=C(O)CC(=O)Nc1ccccc1	–	inactive: -2.59%
Cc1cc(=O)oc2c(C(=O)/C=C\c3cccs3)c(O)ccc12	inconclusive [inhibitor, single point]	–
Clc1cccc(-c2cc3nc4c(c(N5CCN(c6cnccn6)CC5)n3n2)CCCC4)c1	inconclusive [inhibitor, partial curve]	–
O=C(N/N=C/c1ccc(N2CCOCC2)cc1)C1COc2ccccc2O1 (stereo unspecified)	inconclusive [inhibitor, partial curve]	–
O=C(NCc1ccco1)N1c2ccccc2Sc2ccccc21	inconclusive [inhibitor, single point]	–
COc1ccc(OC)c(C(=O)CSc2nnc(Cc3cccs3)n2C)c1	active: 22.4 µM	–
O=C1CC(c2ccccc2)CN1S(=O)(=O)c1ccccc1 (stereo unspecified)	–	inactive: 1.89%
CC(CCc1ccccc1)NC(=O)C1CCN(S(=O)(=O)N2CCOCC2)CC1 (stereo unspecified)	inconclusive [inhibitor, single point]	–
Cc1nn(CC#N)c(=O)n1-c1ccccc1F	–	inactive: 25.8%
Cc1cccc(NC(=O)c2sc3nc(N)c(C#N)cc3c2N)c1	–	inactive: -3.61%
CCn1c(C)c(C(C)=O)c(N2CCN(c3cccc(Cl)c3)CC2)nc1=S	active: 14.1 µM	–
CN(C)c1nc(N/N=C/c2c[nH]c3ccccc23)nc(N2CCOCC2)n1	active: 18.9 µM	–
Cc1sc(NC(=O)c2ccco2)c(CN2CCN(Cc3ccccc3)CC2)c1C	active: 28.2 µM	–
COc1ccc(-n2c(CNC(=O)c3cc(OC)c(OC)c(OC)c3)n[nH]c2=S)cc1	–	inactive: -6.25%
COC(=O)c1ccc2c(=O)n3c(nc2c1)SCC(c1ccccc1)=N3	inconclusive [inhibitor, partial curve, poor fit]	–
